We go through 40 sequences from the supplement of paper PMC10441789.

This is one part of the list. Antibody binding of pooled human sera (four to six donors per pool; dilution not stated) to peptides of the Trypanosoma cruzi antigen TSSA on microarrays. Quantile-normalised fluorescence in arbitrary units, mean of duplicate arrays; higher = more binding. No active / inactive call. The uninfected pools are read here as the healthy donors of the same country. The strongest signals lie near the top of the scale (about 60,000).

The test system of this test is pooled sera of uninfected people, Colombia. The experiment in a line: antibody binding signal (normalised fluorescence) (arbitrary fluorescence units); higher = stronger serum antibody binding to peptide. The protocol:
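Microarray of 15-residue peptides over residues 30-55 of Trypanosoma cruzi TSSAII, each with 1 to 10 substitutions at naturally variable positions, probed with one serum pool per country.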
GKENKPATGGTPSPP gave an antibody binding signal of 289.

With KTATGEAPSPSGASS, the antibody binding signal came to 96.5.

For the sequence PSGKDKKPAAGGAPS, the antibody binding signal was 102.

KEKKPAAGETPSPPG had an antibody binding signal of 92.9.

Consider KDNKTAAGETPSQPG, for which the antibody binding signal worked out at 324.

As for ISTPPSGKEKKPAAG, the antibody binding signal was found to be 357.

Consider KAAAGGTPSPPGASS, for which the antibody binding signal turned out to be 179.

SGKENKAATGETPSQ registered an antibody binding signal of 636.

As to GKDNKPATGEAPSPS, the antibody binding signal came to 438.

For PSGTENKAATGEAPS, the antibody binding signal stood at 363.

For SGKDKKAATGEAPSP, the antibody binding signal is 279.

STPPSGTENKAAAGG showed an antibody binding signal of 879.

Regarding ENKAAAGETPSPSGA, the antibody binding signal was found to be 86.5.

KENKAAAGETPSQPG: the antibody binding signal was 167.

The sequence PSGTDNKTATGETPS yielded an antibody binding signal of 280.

In turn, PSGTDNKPAAGEAPS yielded an antibody binding signal of 442.

The sequence KKTATGEAPSQSGAS displayed an antibody binding signal of 105.

Turning to KENKPAAGEAPSQSG, the antibody binding signal came out at 109.

Sequence EKKPAAGEAPSQPGA registered an antibody binding signal of 160.

KEKKTAAGETPSQPG registered an antibody binding signal of 352.

In turn, GKDKKAAAGEAPSQP displayed an antibody binding signal of 98.9.

GKEKKPAAGGTPSPS gave an antibody binding signal of 104.

TDNKAAAGGAPSPSG: the antibody binding signal worked out at 292.

For GTDNKAAAGGTPSPP, the antibody binding signal came out at 509.

In turn, SGTENKAAAGGTPSQ had an antibody binding signal of 369.

Turning to KDKKTAAGETPSPPG, the antibody binding signal turned out to be 271.

Turning to STPPSGTENKTAAGG, the antibody binding signal amounted to 713.

The sequence PPSGTENKAATGETP yielded an antibody binding signal of 331.

As to DKKAATGETPSPSGA, the antibody binding signal worked out at 835.

Consider GKEKKPAAGEAPSQS, for which the antibody binding signal was 75.9.

Turning to SGTENKPAAGGTPSP, the antibody binding signal worked out at 642.

On to TENKTATGETPSPPG, for which the antibody binding signal was 129.

The sequence PSGKDNKTAAGEAPS registered an antibody binding signal of 311.

In turn, SGKEKKTAAGGTPSP returned an antibody binding signal of 157.

Regarding GTDKKPAAGGAPSQP, the antibody binding signal stood at 136.

In turn, KDKKPAAGGTPSQSG yielded an antibody binding signal of 85.3.

The sequence DNKTAAGETPSQPGA came in with an antibody binding signal of 310.

The sequence GKDNKAATGEAPSQP displayed an antibody binding signal of 315.

KEKKPATGEAPSQSG gave an antibody binding signal of 179.

With GTEKKAAAGGAPSQP, the antibody binding signal came out at 128.
